Experimental data reported in PMC5847570 (2018).

Biological target: Φ11DUT
Assay: ITC

B1: Staphylococcal repressor protein Stl_(SaPIBov1) (natural protein)
chain: not shown
- Kd: 100 nM
